According to PubChem BioAssay AID686979 (National Center for Advancing Translational Sciences (NCATS), 2013):
The whole screen tested about 420,000 compounds, of which about 50,000 (12%) were called active. Inconclusive results, whose numbers are uncertain, are shown with a selection of clear calls. Calls come from the whole dose curve; as a rule, active = well fitted inhibition curve with a large enough effect; inconclusive = small, poorly fitted or top-dose-only effect; inactive = flat fitted curve, though single readings scatter. No potency is given beside an inconclusive call; the fits are too rough.

test: qHTS for Inhibitors of human tyrosyl-DNA phosphodiesterase 1 (TDP1): qHTS in cells in presence of CPT; conditions: chicken DT40 Tdp1-/-;hTDP1 cells + 20 nM CPT, ATP luminescence, 48 h; activity change, negative = growth inhibition: at 46.2 µM (top of the series); note: nearly all actives have a fitted effect of over 55% in size
Procedure, shortened: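 Chicken DT40 Tdp1-/- cells complemented with human TDP1, 400 cells/well, exposed to compounds plus 20 nM camptothecin for at least 48 h at 37 C; viability read as ATP content by CellTiter-Glo luminescence.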
% is set by controls: 0 for no effect and ±100 for the full control effect; potency is the fitted concentration of half-maximal effect; tags give direction and shape of the fitted curve.

Structure (SMILES) | Potency | activity change, negative = growth inhibition
COc1cc2c(C(=O)N(C)c3cccc(C(F)(F)F)c3)cn(CC(C)C)c(=O)c2cc1OC | active: 13 µM | –
C/C(O)=C(/C#N)c1nc2ccccc2[nH]1 | inconclusive [inhibitor, single point] | –
Cc1cccc(N2CCn3c2nc2c3c(=O)n(CCCc3ccccc3)c(=O)n2C)c1 | – | inactive: -25.5%
COc1ccc([C@H]2[C@@H]3C=CCC[C@@]3(C)C(=O)N2Cc2ccccc2)cc1Cl | inconclusive [inhibitor, single point] | –
CCCn1c(=O)c(C(=O)Nc2cc(C)ccn2)c(O)c2ccccc21 | inconclusive [inhibitor, single point] | –
COCCn1c(SCc2nc3scc(-c4ccc(Cl)cc4)c3c(=O)[nH]2)nnc1-c1cccc(C)c1 | inconclusive [inhibitor, single point] | –
CC(C)C(NS(=O)(=O)c1cccc2nsnc12)C(=O)Nc1nc2ccc(Cl)cc2s1 (centres undefined) | inconclusive [inhibitor, single point] | –
O=C(NCC1CCCCC1)C1(CC2CC(c3cccc(Br)c3)=NO2)CCNCC1 (centres undefined) | active: 16.4 µM | –
Cc1oc(-c2cccc(Cl)c2)nc1Cn1c(SCc2ccc(F)cc2)nc2cccnc21 | active: 25.9 µM | –
O=S(=O)(Cc1cc(NCc2ccccc2)nc(-c2ccccn2)n1)c1ccccc1 | active: 4.61 µM | –
Cc1ccc(C2CC(=O)Nc3c2c(C)nn3-c2nc(C)cc(C)n2)c(C)c1 (centres undefined) | – | inactive: -14.5%
Cc1nn(Cc2c(Cl)cccc2Cl)c(C)c1NC(=O)c1sc2ccccc2c1Cl | active: 18.4 µM | –
O=C(CCCCCn1c(=O)c2sccc2n(CC(=O)Nc2ccccc2F)c1=O)NCc1ccc2c(c1)OCO2 | inconclusive [inhibitor, single point] | –
CCC(C)OC(=O)/C(C#N)=C/c1ccc(-c2ccc(Br)cc2)o1 (centres undefined) | inconclusive [inhibitor, single point] | –
O=C(CSc1nc(N2CCCCC2)nc(N2CCCCC2)n1)N1CCN(c2ccccc2)CC1 | active: 23.1 µM | –
C[C@H](CO)N1C[C@H](C)[C@@H](CN(C)S(=O)(=O)c2ccc(F)cc2)Oc2ccc(NC(=O)Nc3ccc(C(F)(F)F)cc3)cc2C1=O | inconclusive [inhibitor, single point] | –
O=C1N=C(N2CCN(c3ccccc3)CC2)SC1Cc1ccccc1 (centres undefined) | inconclusive [inhibitor, single point] | –
NC(=S)NN=C1c2ccccc2-c2cc(Br)ccc21 | active: 5.17 µM | –
COc1ccc(-c2c(N)nnc3c2[nH]c2ccccc23)cc1OC | inconclusive [inhibitor, single point] | –
